# Measurements taken from publication PMC4336329 (PLoS ONE, 2015).
# Out of some 310,000 compounds screened, about 14,000 (4.5%) showed an effect of 50% or more. The effect is printed as a negative number. The list shows a part of the results.
# Target: human ether-à-go-go-related gene (hERG) potassium channel (human, UniProt Q12809)
# Experiment: primary screen, population patch clamp on CHO cells stably expressing hERG
# 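Also: peak tail current of the secondary pulse compared with the same well before compound.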
# Sequence of human ether-à-go-go-related gene (hERG) potassium channel (Q12809 whole entry, looked up): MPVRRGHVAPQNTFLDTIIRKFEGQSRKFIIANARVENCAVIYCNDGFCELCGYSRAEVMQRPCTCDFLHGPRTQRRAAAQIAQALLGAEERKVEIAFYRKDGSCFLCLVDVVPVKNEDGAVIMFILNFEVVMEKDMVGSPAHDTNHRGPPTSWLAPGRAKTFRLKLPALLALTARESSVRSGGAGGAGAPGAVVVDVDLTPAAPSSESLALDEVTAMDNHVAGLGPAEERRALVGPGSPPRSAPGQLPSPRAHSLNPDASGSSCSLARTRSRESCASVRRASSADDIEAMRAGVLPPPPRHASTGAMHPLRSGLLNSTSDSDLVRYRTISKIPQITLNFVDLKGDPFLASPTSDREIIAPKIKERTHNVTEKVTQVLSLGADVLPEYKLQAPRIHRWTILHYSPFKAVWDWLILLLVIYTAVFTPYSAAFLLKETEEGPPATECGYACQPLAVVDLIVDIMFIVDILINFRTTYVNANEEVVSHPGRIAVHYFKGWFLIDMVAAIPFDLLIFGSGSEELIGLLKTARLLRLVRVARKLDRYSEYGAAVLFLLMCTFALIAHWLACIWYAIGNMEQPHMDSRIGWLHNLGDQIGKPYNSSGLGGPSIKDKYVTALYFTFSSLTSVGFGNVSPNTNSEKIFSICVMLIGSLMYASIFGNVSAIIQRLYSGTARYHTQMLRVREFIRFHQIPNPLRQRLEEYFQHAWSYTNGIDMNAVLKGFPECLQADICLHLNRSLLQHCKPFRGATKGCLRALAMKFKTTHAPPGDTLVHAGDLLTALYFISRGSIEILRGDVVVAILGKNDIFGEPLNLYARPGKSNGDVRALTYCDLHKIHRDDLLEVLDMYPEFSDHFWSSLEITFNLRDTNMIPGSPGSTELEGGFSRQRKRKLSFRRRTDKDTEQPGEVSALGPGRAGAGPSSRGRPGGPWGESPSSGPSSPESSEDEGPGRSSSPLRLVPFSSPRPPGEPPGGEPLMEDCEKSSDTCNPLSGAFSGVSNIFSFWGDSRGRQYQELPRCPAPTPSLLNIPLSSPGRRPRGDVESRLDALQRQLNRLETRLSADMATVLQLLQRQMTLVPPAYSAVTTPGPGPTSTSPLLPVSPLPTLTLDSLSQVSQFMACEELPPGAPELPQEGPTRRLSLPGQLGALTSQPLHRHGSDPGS
row,SMILES,"hERG current change (%, negative = inhibition) at 10uM [%]"
1,COC(=O)CCCC1=CC2=CC(=O)C(C)(OC(=O)c3cccs3)C(=O)C2=CN1c1cccc(C#N)c1 (centres unmarked),-15.4
2,O=S(=O)(NCc1c(Cl)cccc1Oc1ccccc1)c1ccc(F)cc1,-45.3
3,S=c1[nH]nc(Cc2cccs2)n1-c1ccccc1,16.2
4,Cc1cccc(CN2CCSc3sccc3C2=O)c1,14.5
5,CCCCCCn1c(Br)nc2c1c(=O)n(C)c(=O)n2C,-22.3
6,Cn1c2c(c(=O)n(C)c1=O)C(NC(=O)c1cccs1)(C(F)(F)F)C(=O)N2 (centres unmarked),5.38
7,COc1ccc(NC(=O)CSc2nnc(CCC(=O)O)c(=O)n2N)cc1,20.7
8,Cc1cccc(N=Nc2ccc(N(C)C)cc2)c1,-1.6
9,CNC(=S)NNC(=O)c1ccc(C(C)(C)C)cc1,5.65
10,COc1ccc(NC(=O)c2cn(-c3ccccc3)nc2-c2ccncc2)cc1,-1.51
11,CCC(C)NC(=O)c1ccc(CS(=O)(=O)Cc2ccc(Cl)cc2)o1 (centres unmarked),-17.9
12,Cc1ccccc1Cn1c(Cc2ccccc2)nc2ccccc21,-19.6
13,CN(C)CCN(C(=O)c1ccc(S(=O)(=O)N(C)c2ccccc2)cc1)c1nc2ccc(Cl)cc2s1.Cl,-13
14,COc1cc2c(cc1OC)C(c1ccccc1)N(S(C)(=O)=O)CC2 (centres unmarked),2.29
15,Cc1ccc(C(O)(C(=O)NNc2ccc3ccccc3n2)c2ccc(C)cc2)cc1.Cl,5.9
16,O=[N+]([O-])c1cccc(-n2nncc2-c2ccccc2)c1,-1.23
17,CC(=O)COC(=O)c1cc(-c2ccc(C)cc2)nc2ccccc12,9.96
18,C=C1CCc2c([nH]c3ccc(OCC(C)C)cc23)C1=O,17.2
19,COc1ccc(OC)c(NC(=O)COC(=O)c2cc3c(s2)CCC3)c1,-2.09
20,CCN(CC)CCNC(=O)c1cc(Cl)c(N)cc1OC.Cl,7.04
21,CCOC(=O)CSc1nc2ccccc2n1CC(=O)N1CCN(c2ccccc2)CC1,-42
22,O=C(Nc1ccc2c(c1)OCCO2)C1CCCN(S(=O)(=O)c2cnc[nH]2)C1 (centres unmarked),20.6
23,COc1cccc(C2=NOC(C(=O)NCC3CCCO3)C2)c1 (centres unmarked),6.5

row,SMILES,"hERG current change (%, negative = inhibition) at 10uM [%]"
1,COc1ccccc1NC(=O)Nc1ccc(Cc2ccncc2)cc1,-0.881
2,CC(=O)c1ccc(OCC(O)CNCc2ccc3c(c2)OCO3)cc1 (centres unmarked),-26.1
3,O=c1c2ccccc2nc(-c2ccccc2)n1-c1ccc(O)cc1,-19.8
4,Cc1ccc(CNC(=O)CCS(=O)(=O)c2cc3c(cc2Cl)NC(=O)CO3)cc1,-8.89
5,COc1cccc(C(=O)NCC2CCCN2S(=O)(=O)c2cccs2)c1 (centres unmarked),-9.69
6,CC(=O)c1c(C)oc2ccc(NS(=O)(=O)c3ccccc3)cc12,3.05
7,CCNC(=S)NNC(=O)c1csc2ccccc12,3.85
8,CSC1=N/C(=C\c2cccnc2)C(=O)N1c1ccccc1,-1.31
9,CCCc1nc2ccccc2c(C(=O)OCC(=O)N2CCc3ccccc32)c1CC,9.89
10,COc1cc2ccccc2cc1C(=O)Nc1ccccc1N1CCCC1,-4.16
11,CN(C)c1cc(-c2ccccc2)nc(N)n1,-0.585
12,CCOC(=O)C1CCN(C(=O)c2ccc(OC)cc2OC)CC1,-25.5
13,CCN(CC)CCn1c(NC(=O)c2ccc(C)cc2)nc2ccccc21,-63.2
14,COc1ccc(N2CCN(CC(=O)Nc3ncc(C)s3)CC2)cc1,9.71
15,Cn1ncc2c(Nc3cccc4ccccc34)ncnc21,-6.03
16,CC/C(=N\NC(=O)c1nnn(-c2nonc2N)c1-c1cccs1)c1ccccc1,24.3
17,O=C1C=C(c2ccc(Oc3ccccc3)cc2)C[C@@H](c2ccc(Cl)cc2)C1,6.02
18,Cc1cccc(OCCSc2nnc(-c3ccoc3C)n2C)c1,-30.4
19,COCCn1c(CNc2ccc(F)cc2)nnc1SCC(=O)Nc1ccc(OC)cc1OC,-32.9
20,Cc1ccc2nc(SCC(=O)Nc3cccc(S(=O)(=O)NC4=NCCCCC4)c3)[nH]c2c1,-10.7
21,Cc1ccc(SC(C)C(=O)Nc2cccc(N(C)S(C)(=O)=O)c2)cc1 (centres unmarked),-4.89
22,Cc1cc(C)c(S(=O)(=O)N2CCCC(C(=O)NC3CCCC3)C2)c(C)c1 (centres unmarked),-16.1
23,COc1ccc(C2(CNC(=O)c3cccc([N+](=O)[O-])c3)CCOCC2)cc1,0.0345

row,SMILES,"hERG current change (%, negative = inhibition) at 10uM [%]"
1,CCCOCC(O)CC(Cc1ccccc1)C(=O)NN (centres unmarked),11.5
2,O=C(Oc1ccccc1)c1cccnc1Oc1ccccc1,-9.7
3,CCOc1nc(C)cc(C)c1S(=O)(=O)c1ccc(Cl)cc1,3.85
4,Cc1noc(C)c1COc1cccc(C(=O)NC(C)(C)C)c1,30.9
5,COc1ccc(C(=O)COC(=O)c2nc3nccc(C)n3n2)cc1F,-3.84
6,CC1CCCN(c2c([N+](=O)[O-])c(=O)oc3ccccc23)C1 (centres unmarked),-43.1
7,O=[N+]([O-])c1ccc2oc(-c3ccccc3)nc2c1,18.6
8,Cc1ccc(NC(=O)CNc2ccc(Cl)c(Cl)c2)cc1S(=O)(=O)N(C)C,-13.4
9,CCc1noc(C)c1C(=O)N1CCN(S(=O)(=O)c2ccc(C(C)=O)cc2)CC1,-7.91
10,Cc1ccc(P(=O)(O)c2ccc(C)cc2)cc1,-4.49
11,COc1ccccc1NC(=O)CC1COc2ccccc2O1 (centres unmarked),2.74
12,Cc1cccc(C(=O)OC(C)C(=O)Nc2ccc(S(=O)(=O)Nc3ncccn3)cc2)c1C (centres unmarked),-3.74
13,C=CCn1c(SCn2nnc3ccccc3c2=O)nnc1-c1ccc(F)cc1,-28.9
14,Cc1ccc(Nc2ccc(S(=O)(=O)N3CCOCC3)cc2[N+](=O)[O-])c(C)c1,-26.4
15,F[B-](F)(F)F.OCCCCC[NH+]=c1cc(-c2ccccc2)oc2ccc(Cl)cc12,-80.3
16,CCn1c(=O)c(C(=O)NCCNCCO)c(O)c2ccccc21.Cl,5.89
17,O=C(c1ccc(CSCc2ccccc2F)o1)N1CCN(c2ccc(N3CCOCC3)nn2)CC1,-66.7
18,C=CCNC(=S)N/N=C/c1ccc(-c2ccc(Cl)cc2Cl)o1,1.88
19,COc1ccc(NC(=O)C(C)N(c2ccc(C)cc2)S(C)(=O)=O)c(OC)c1 (centres unmarked),-14.4
20,Nc1nnc(SCC(=O)Nc2cccnc2Cl)s1,3.54
21,Cc1ccc(NC(=O)COC(=O)c2c(C)nn(-c3ccccc3)c2C)cc1,0.18
22,CC(C)c1ccc(S(=O)(=O)N2CCN(C(=O)CN3C(=O)NC4(CCCCC4)C3=O)CC2)cc1,5.54
23,Cn1c(=NC(=O)C2CCCCC2)sc2cc([N+](=O)[O-])ccc21,27.8

row,SMILES,"hERG current change (%, negative = inhibition) at 10uM [%]"
1,Cc1cccc(N(C)c2ncnc3onc(-c4ccc(F)cc4)c23)c1C,-8.28
2,Cn1c(=O)[nH]c(=O)c2c1nc(SCc1ccccc1Cl)n2CC(N)=O,9.27
3,Cc1ccc(N(C(=O)c2cc3ccccc3oc2=O)C2C=CS(=O)(=O)C2)cc1 (centres unmarked),-6.15
4,CN1CCN(c2ccc(CNS(=O)(=O)Cc3cccc(C(F)(F)F)c3)cc2)CC1,-17.6
5,O=C(Oc1ccccc1)N(c1ccccc1)c1ccccc1,2.8
6,CCCCn1c(N)c(N(CC(C)C)C(=O)Cn2c(=O)cnc3ccccc32)c(=O)[nH]c1=O,10.1
7,CCOC(=O)Nc1ccc2c(c1)Sc1ccccc1N2C(=O)CCN1CCOCC1,-17.6
8,COc1ccc2[nH]cc(C3=CCNCC3)c2c1.O=C(O)CCC(=O)O,1.67
9,CCOC(=O)c1c2ccccc2[n+]([O-])n1[C@@H](C)C(N)=O,7.87
10,CCc1ccccc1NC(=O)CN(C)Cc1c(O)ccc2ccccc12,3.3
11,O=C(COc1ccc(Cl)cc1)NCc1nnc(SCC(=O)N2CCCCCC2)o1,-15.3
12,Cc1ccc(N2C(N)=C(C#N)C(c3cccnc3)C3=C2CCCC3=O)cc1 (centres unmarked),-13.1
13,COc1cccc(Nc2nc(-c3cccnc3)cs2)c1,6.87
14,CC(=O)c1ccc(NC(=S)NC(=O)/C=C/c2ccccc2)cc1,19.7
15,COc1ccc(CC(=O)Nc2cccc3ncccc23)cc1OC,6.35
16,O=C(COC(=O)CNC(=O)c1ccccc1)Nc1ccc2c(c1)OCO2,-3.96
17,Cc1cccc2cc(C#N)c(N3CCOCC3)nc12,4.26
18,CC1=CC2=NC(=O)CC(C)(C(=O)N(CC(=O)NC(C)C)C3CCCC3)N2C=C1 (centres unmarked),14.3
19,Cc1ccc(NC(=O)CC2(CC(=O)O)CCCC2)cc1,12
20,CN1CCN(S(=O)C23CC4CC(CC(C4)C2)C3)CC1 (centres unmarked),-17.1
